From ChEMBL document CHEMBL4888484, “Replenishing the malaria drug discovery pipeline: Screening and hit evaluation of the MMV Hit Generation Library 1 (HGL1) against asexual blood stage Plasmodium falciparum ,using a nano luciferase reporter read-out” (2022) come the findings set out here.

Molecules are shown by their SMILES. Hit rate of the full screen: of about 150,000 compounds, about 540 (0.36%) showed an effect of 50% or more. The list shows a part of the results.

This assay relates to Plasmodium falciparum. Put plainly: Primary screen in NF54 nanoGlo assay, in single point, at 2uM, 72h; a lower Z score goes with more inhibition. The following applies: timepoint 72 hour. It is filed as functional, Erythrocyte.
In the case of `Cc1cc(NCCCOC2CCOCC2)nc(C)n1`, the “% Inhibition” value is -4% and the Z score was 0.67.
Take `CCn1nc(-c2ccc(OC)c(S(=O)(=O)N3CCCCCC3)c2)c2c(c1=O)CCCC2`: the “% Inhibition” value is on record as -20% and the Z score is on record as 3.07.
With `CCc1cc(C(=O)N[C@@H](C)COC)no1`, the “% Inhibition” value is listed as -15% and the Z score is recorded as 1.74.
On the same counts, the results for `CCc1nc(NCCC(=O)N2CCCC2)c2cc(Cl)cc(Cl)c2n1` are -4% and 0.49.
For `Cc1[nH]ncc1C(=O)N[C@@H]1C[C@H]1c1cccc(Cl)c1` the same measures were 0% and -0.04.
For `Cc1ccc(NC(=O)CN2C(=O)NC(=O)C2(C)C)cc1-c1ncco1` the same measures were -6% and 0.75.
Consider `O=C1CCc2cc(NC(=O)c3cccnc3)ccc2N1`, for which the “% Inhibition” value was -6% and the Z score was 1.13.
As for `CCCn1c(C)nnc1CN1CCN(C(=O)N(C)C)CC1(C)C`, the “% Inhibition” value amounted to 14% and the Z score is on record as -1.61.
On the same counts, the results for `C[C@@H](Cn1cccn1)Nc1nc(C2CCCC2)nc2c1CCNCC2` are -8% and 1.39.
Regarding `CCN1C[C@@H](c2ccccc2)CC2(CCN(Cc3nc(C(=O)OC)co3)CC2)C1`, the “% Inhibition” value amounted to 2% and the Z score is -0.25.
On the same counts, the results for `CN1CC(NC(=O)CCc2cncn2C)C(c2ccccc2)C1` (stereo unspecified) are -12% and 1.04.
For `O=C(O)c1cccnc1Oc1cccc2cccnc12` the same measures were 7% and -0.84.
For `N#Cc1ccccc1-c1ccc(CN2CCO[C@H](c3cccnc3)C2)o1` the same measures were 4% and -0.64.
`Cc1ccc(C(=O)N[C@@H](C)c2cccc(-n3cccn3)c2)cn1`: the “% Inhibition” value was -6% and the Z score came to 0.74.
Take `Cc1cccc(CN(C(=O)c2cc(CN3CCC(O)CC3)on2)C(C)C)c1`: the “% Inhibition” value was determined as 0% and the Z score is on record as 0.02.
On the same counts, the results for `COc1ccsc1C(=O)N1CC2(CN(C)C(=O)O2)C1` are -7% and 1.17.
On the same counts, the results for `Nc1cc(N2CCOCC2)c(Br)cn1` are -5% and 0.65.
On the same counts, the results for `COC(=O)c1coc([C@H](CO)NC(=O)C(C)(C)C)n1` are -3% and 0.53.
Regarding `O=C1CCN(CC(=O)N[C@H](c2ccc(F)cc2)C2CCCC2)C(=O)N1`, the “% Inhibition” value is -8% and the Z score was 0.83.
On the same counts, the results for `C[C@H]1CCCCN1C(=O)c1cc(-c2ccc(C3CCCCC3)cc2)on1` are -19% and 1.7.
For `C[C@H]1CN(C(=O)Cn2cc(Cn3cccn3)nn2)CC(C)(C)O1` the same measures were -4% and 0.58.
As to `Cc1noc(C)c1S(=O)(=O)N[C@H]1CCCc2c1cnn2C`, the “% Inhibition” value was -4% and the Z score was determined as 0.51.
On the same counts, the results for `CC[C@H](NC(=O)NCCc1ccco1)c1nc(C)cs1` are 4% and -0.5.
On the same counts, the results for `COCCc1noc([C@H](C)NC(=O)c2ccc(C)c(C)c2)n1` are -15% and 1.86.
`COc1ccccc1CNC(=O)c1cn2c(n1)COCC2`: the “% Inhibition” value is on record as 1% and the Z score is listed as -0.24.
On the same counts, the results for `COc1ccc(/C=C/c2nc(CCNc3ccccc3)no2)cc1` are -9% and 0.97.
On the same counts, the results for `O=C(NC1CCCCC1)[C@@H]1COC2(CCN(C(=O)c3ccco3)CC2)N1C(=O)c1ccccc1` are 6% and -0.98.
As to `C#CCN(CCC#N)Cc1cccc(C)n1`, the “% Inhibition” value was found to be 2% and the Z score is listed as -0.25.
For `COCCCNC(=O)C[C@H]1NC(=O)c2ccccc2NC1=O` the same measures were -8% and 0.99.
For `COc1ccc(-c2nc(N(CCC(=O)Nc3ccccc3)Cc3ccccc3)c3ccccc3n2)cc1` the same measures were -7% and 1.33.
On to `O=C(Cn1nc2c3cc(Cl)ccc3ncn2c1=O)Nc1ccccc1`, for which the “% Inhibition” value is given as 0% and the Z score is reported as 0.
In the case of `CCCCC(=O)N1CCC(C(=O)N[C@@H]2CCCC[C@H]2NC(=O)c2ccccc2C)CC1`, the “% Inhibition” value is listed as -13% and the Z score was 1.56.
On the same counts, the results for `O=C(Nc1ccc2nc(N3CCCC3)sc2c1)c1ccc2[nH]cnc2c1` are 2% and -0.3.
On the same counts, the results for `O=C(c1ccc2[nH]ccc2c1)N1CC(N2C(=O)CNC2=O)C1` are -7% and 1.33.
On the same counts, the results for `COc1cc(C(=O)N2CCNC[C@H]2C(=O)Nc2ccc(F)cc2)ccn1` are -6% and 0.86.
As for `O=C(CN1CCCN2CCC[C@H]2C1)N1CCCc2ccccc21`, the “% Inhibition” value is on record as -9% and the Z score worked out at 1.11.
On the same counts, the results for `CCCN(CC(=O)O)C(=O)c1cc(C)n(C(C)C)c1C` are -1% and 0.18.
With `CC(C)CNC(=O)C1Cc2cc(C(F)(F)F)ccc2N2CCN(CCOc3ccccc3)CC12` (stereo unspecified), the “% Inhibition” value is recorded as -5% and the Z score amounted to 0.73.
Consider `Cn1cnnc1CN1CCC2(CCC(=O)N(C3CC3)C2)CC1`, for which the “% Inhibition” value was -13% and the Z score was determined as 1.57.
On the same counts, the results for `Clc1ccc(-c2nnc(-c3ccco3)c3nocc23)cc1` are 3% and -0.41.
For `CC(C)(C)C(=O)NCCn1ccc(-c2cccs2)n1` the same measures were -10% and 1.26.
For `OCC1OC(Nc2ccc(-c3ccc(NC4CC(O)C(CO)O4)cc3)cc2)CC1O` (stereo unspecified) the same measures were -1% and 0.1.
As to `CC(=O)N(C)CC(=O)Nc1ccc(Oc2nc(C)cs2)c(F)c1`, the “% Inhibition” value amounted to 27% and the Z score was -3.04.

The % Inhibition is the change of the read-out against control, counted positive when it falls.
